Assay results: patent US20260286396A1, “AXL KNOCK OUT CAR T CELLS AND METHODS FOR USE THEREOF” (priority 2023, published 2026)

Assays:
Axl = details: B cell malignancies, lower dose levels (Sinha et al. 2015); cited from earlier work
CD19+ JeKo-1 cells = test: TP-0903 cytotoxicity (in vitro killing) assay against JeKo-1; type: cell-based, human; details: 65 nM TP-0903, 48 hours, luciferase+ JeKo-1
Procedure: FIGS. 5A-5D are graphs plotting the results of cytotoxicity assays. […] At 48 hours, cell killing was assessed by luminescence relative to controls. ****p<0.0001, one-way ANOVA. […] CART19 were co-cultured at different effector-to-target ratios (E: T) with luciferase^+ JeKo-1 cells. At 48 hours, cell killing was assessed by luminescence relative to controls. ****p<0.0001, one-way ANOVA. […] At 48 hours, cytotoxicity was determined by flow cytometry. ***p=0.0001, 26 one-way ANOVA. FIG. 5D is a graph plotting CART19 cytotoxicity assay against leukemic B cells derived from CLL patients. CART19 were co-cultured at different E:T ratios with leukemic B cells derived from CLL patients. 48 hours after the co-culture, cytotoxicity was determined by flow 29 cytometry. ****p<0.0001, one-way ANOVA.
In brief, luciferase^+ JeKo-1 (CD19^+) or luciferase+Molm-13 (CD19^−) cells were used as target cells. CART19 cells were co-cultured with target cells at the indicated effector: target (E:T) ratios in TCM. […] Each assay also included control UTDs generated from the same donor and expanded under the same conditions, and a negative control target cell line. Killing was calculated by bioluminescence imaging on a Xenogen IVIS-200 Spectrum (PerkinElmer; Hopkinton, MA) at 24, 48, and 72 hours.

CART19 cells [1] = test: Cytokine analysis (38-multiplex) of CART19/JeKo-1 co-culture supernatant
CART19 cells [2] = test: In vitro CART19 proliferation assay in co-culture with JeKo-1
CART19 cells [3] = test: CART19 helper T cell (Th1/Th2) phenotype by flow cytometry after JeKo-1 co-culture; details: 10 nM TP-0903, JeKo-1 co-culture, 5 days
monocytes = test: Cytokine analysis of monocyte/TP-0903 co-culture supernatant; details: supernatant at 72 hours, low doses of TP-0903
M2-type macrophages = test: M2 macrophage polarization and number in co-culture by flow cytometry
JeKo-1 = JeKo-1 xenograft NSG mouse relapse model; type: in vivo, mice; details: TP-0903 20 mg/kg/day p.o. alone
[4] = system: T cells stimulated with PMA and ionomycin; details: PMA 50 ng/mL + ionomycin 1 μg/mL, 4 hours, TP-0903 10 to 30 nM
[5] = system: JNK, p38, GATA-3, T-bet, LCK; test: Western blot analysis of downstream signaling in CART19 cells; details: 10-30 nM TP-0903, 24 hours
[6] = CART19 + JeKo-1 in the presence of TP-0903

SMILES: CN1CCN(Cc2ccc(Nc3ncc(Cl)c(Nc4ccccc4S(=O)(=O)N(C)C)n3)cc2)CC1 [TP-0903, Dubermatinib]
- inhibition of Axl phosphorylation (Axl): potent inhibition
- killing of tumor cells (direct anti-tumor activity) (CD19+ JeKo-1 cells): direct anti-tumor activity
- secreted IL-5 (CART19 cells [1]; CART19 + JeKo-1, 3 days, in the presence of TP-0903): significantly downregulated
- secreted IL-8 (CART19 cells [1]; [6]): reduction
- secreted IP-10 (CART19 cells [1]; [6]): reduction
- secreted sCD40L (CART19 cells [1]; [6]): reduction
- CD8+ CAR T cell proliferation (CART19 cells [2]; 10 nM TP-0903, JeKo-1 at 1:5, 5 days): superior
- CART19 cell expansion (CART19 cells [2]; 10 nM TP-0903, JeKo-1 co-culture, 5 days): improved
- Th2 cells among CART19 cells (CART19 cells [3]): reduction
- IL-1 receptor α (monocytes): significant reductions
- IL-1β (monocytes): significant reductions
- IL-6 (monocytes): significant reductions
- IL-17A (monocytes): significant reductions
- M2 polarization (CD206, CD163 on CD14+ cells) (M2-type macrophages): prevents M2 polarization
- antitumor activity of monotherapy (JeKo-1): did not have any significant antitumor activity
- IFN-γ production [4]: preserved
- IL-2 production [4]: preserved
- phosphorylation of GATA-3 [5]: no changes
- phosphorylation of JNK [5]: no changes
- phosphorylation of LCK [5]: no changes
- phosphorylation of T-bet [5]: no changes
- phosphorylation of p38 [5]: no changes
